# Whole data set: some 33,000 sequences, median “E-score (-0.5 to 0.5)” near -0.035, cut for the highest 2% near 0.34. Some of the results follow.
# Target: T1, Mot3 (UniProt P54785)
# T1 sequence: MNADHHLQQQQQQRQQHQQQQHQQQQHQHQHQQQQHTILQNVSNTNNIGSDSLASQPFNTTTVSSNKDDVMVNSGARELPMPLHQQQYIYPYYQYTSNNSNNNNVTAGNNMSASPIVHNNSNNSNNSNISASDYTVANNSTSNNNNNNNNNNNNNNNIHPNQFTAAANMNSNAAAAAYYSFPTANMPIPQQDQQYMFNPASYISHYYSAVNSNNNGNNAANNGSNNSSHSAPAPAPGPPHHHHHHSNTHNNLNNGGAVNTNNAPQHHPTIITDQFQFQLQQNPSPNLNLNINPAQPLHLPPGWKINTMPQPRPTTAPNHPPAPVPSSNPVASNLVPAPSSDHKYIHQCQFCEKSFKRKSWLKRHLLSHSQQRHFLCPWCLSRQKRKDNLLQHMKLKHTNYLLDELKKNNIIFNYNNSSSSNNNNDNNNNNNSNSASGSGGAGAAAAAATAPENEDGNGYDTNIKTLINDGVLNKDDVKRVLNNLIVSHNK
# Experiment: PBM E-score (8-mer binding enrichment) (E-score (-0.5 to 0.5)); higher = stronger / more preferred TF binding; most listed sequences are background and not binding sites
# Conditions: protein concentration: 200 nM; construct: GST-full length
# In short: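 The E-score, a modified Wilcoxon-Mann-Whitney statistic, was computed by the Universal PBM Analysis Suite for every ungapped eight-base word pooled with its reverse complement. Scans behind it were normalised with masliner after bound GST-tagged yeast transcription factors were detected with fluorescent anti-GST. The proteins, at about 100-200 nM, had been applied to universal all-10-mer Agilent arrays made double-stranded by primer extension.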
row,Sequence,PBM E-score
1,AAAGTAGA,0.00818
2,GCACTGGA,-0.195
3,GATCGCTA,-0.156
4,ATGCGGCA,-0.115
5,CCATCCGA,-0.108
6,ATTTGACA,0.142
7,ATAATCAA,-0.0764
8,TCGGGAAA,-0.064
9,GTCTAATA,0.212
10,TATGATAA,0.142
11,AAACGCAT,0.0226
12,CTAAGGGC,-0.149
13,GCAATTTA,0.182
14,AGAGTGCC,0.198
15,CGGCGGAG,-0.219
16,CTGTGATC,-0.157
17,ACCGGAAA,-0.0696
18,GGATTTAA,-0.0105
19,TCCCCCAA,-0.254
20,TGGCGGAA,-0.0954
21,GCCCATAC,0.0461
22,AAATCTAT,-0.00436
23,ATAGGTGA,-0.0643
24,CTACTCGC,-0.0425
25,CCGACCAG,-0.153

row,Sequence,PBM E-score
1,TGCTGCAA,0.0627
2,AAGCCAGG,-0.00322
3,ATCCCCGC,-0.161
4,GATTATAC,-0.126
5,CTGGTGCA,-0.2
6,CATGACTC,-0.133
7,CCGGAACC,-0.239
8,CAGAGCAA,0.0904
9,CAGCCAGC,-0.264
10,ATAAGACC,-0.148
11,GGCGTCCC,-0.317
12,ATAATCTA,0.0717
13,CGCCCTAA,-0.042
14,GACACCAA,-0.0329
15,CTGTCCCC,-0.296
16,ACCGGCCT,-0.0904
17,CGCCGGAA,-0.224
18,AACCTTGA,0.146
19,TATAGCAA,0.0534
20,CAGAAGTC,-0.17
21,CTTTAATC,-0.0933
22,GACTGTCA,-0.16
23,CAAGGGAA,-0.0253
24,CATACGTC,-0.0712
25,GTCTTAAA,-0.131

row,Sequence,PBM E-score
1,ACCGCGCC,-0.204
2,AGTGAACC,-0.0253
3,CACGAAAG,0.107
4,AATTCGTG,0.131
5,ATGCACAC,0.0744
6,CGAACTTC,0.00147
7,CAAAGCGA,-0.0399
8,CCTTGCTC,-0.214
9,CATGATAG,0.0665
10,AACGAGAG,-0.0181
11,TAGAGCTA,0.00065
12,CTTTGTTC,0.207
13,GGCGCCTA,0.306
14,AATACGGA,0.0887
15,GGTCTCAC,-0.0183
16,ATGGTACG,0.0336
17,CCCACGGA,-0.329
18,AGATTAAT,0.0372
19,AAGGGTGT,0.0514
20,GAATAATC,-0.074
21,CTCGGACC,-0.314
22,GTCTACAA,0.0985
23,AGACCCAG,-0.153
24,ACCCGCCA,-0.115
25,ACCCCAGA,-0.22

row,Sequence,PBM E-score
1,AGCTGCCG,-0.18
2,GTCTGAAA,-0.0119
3,AACCGTAA,0.0256
4,CAGATTAA,0.021
5,CAGCCTGC,-0.106
6,CTAAGCGC,-0.0175
7,CCGTTCCG,-0.278
8,CGATGTAC,0.103
9,ACAAGCAA,0.174
10,AAGGACGG,-0.217
11,CTCAAAAA,-0.0872
12,AAACTAGG,0.0841
13,GCCCGTAC,-0.169
14,CCACAAAC,-0.0354
15,AGCCCTCA,-0.195
16,GTTGAACA,0.106
17,GGTCCCCA,-0.293
18,CGTTCCAA,0.0171
19,TAAGAAAA,0.0531
20,ATTTCAGA,-0.0309
21,CGCAACGA,0.217
22,AACTTCGG,-0.00811
23,GTTTCATA,-0.0759
24,CAGATGCG,-0.0256
25,TTCGGCAA,0.0952

row,Sequence,PBM E-score
1,CTACGATC,0.0144
2,ACATTTAC,0.334
3,CGGCGTAG,-0.0549
4,ACAATTGC,0.0275
5,ACCGGGTC,-0.0798
6,ACTGGTAT,-0.162
7,CTTTATAA,0.216
8,ACTCGACA,-0.0199
9,CTCTGTCA,0.00291
10,CTAAAGGC,0.35
11,CGTTTTTA,0.188
12,GGGCATAC,-0.186
13,ATTCAGAC,-0.0183
14,CCTAGTGA,-0.0745
15,GGTCTGCA,-0.245
16,ATTTCGGG,-0.133
17,AAAGGGAC,-0.104
18,CGCTACGC,-0.174
19,ACGCTCAT,0.0274
20,CCATTTAG,0.0168
21,ATCCTGGG,-0.241
22,CCGATTAG,-0.156
23,AACATAAC,0.294
24,ACGGAAGG,0.0584
25,CTCGGTTA,-0.0778

row,Sequence,PBM E-score
1,TCTTGTAA,0.33
2,CACCTGGA,0.159
3,CTGTCCAA,-0.158
4,GGTCTGAC,-0.242
5,CTTACTTC,-0.071
6,CGAAAGTA,0.0648
7,GACTCGGA,-0.41
8,CCATTTCG,-0.173
9,GGGCGCCA,-0.265
10,CCACCCTA,-0.0726
11,CCTACGAG,0.177
12,CCTAGAGA,-0.145
13,GATGCTCC,-0.1
14,GCAGCTGC,-0.127
15,TCGGCGCA,0.00234
16,AAAAACCC,0.053
17,CTAGTGTA,0.114
18,TCAAGCCA,-0.13
19,CTCCGGGC,-0.234
20,CCCCGAGC,-0.218
21,CTATCAAA,-0.0817
22,GAAAGGTA,0.228
23,GCGTGCCC,0.295
24,AGATGCTG,-0.111
25,ATAAAAAC,0.195

row,Sequence,PBM E-score
1,CACCAGGC,-0.0662
2,GATAGACC,0.0018
3,CACCTAAG,0.0913
4,TAAGTAGA,0.00282
5,TATAAGGA,0.164
6,ATTGAGCC,0.00432
7,CAGTCTCC,-0.146
8,CATAAAGG,0.155
9,CAGTTTGC,-0.111
10,CCTCCTAA,-0.00753
11,GATGTACC,0.129
12,GAAGCCCA,-0.295
13,AACCGGGC,-0.367
14,GACTACGA,-0.212
15,ATGATGCC,-0.106
16,ATTCACGC,0.0838
17,TATGGTCA,-0.162
18,CCGGCAGG,0.0676
19,CCTTTGAG,0.0684
20,CTCATATC,-0.271
21,AGCTGTAA,0.143
22,CCGGTGCA,-0.18
